Over roughly 4,500 sequences, “median log2 fold change of GCK-ALFA target abundance (FLAG IP / Myc IP barcode read proportion)” has its median near 0.078; the lowest 2% begin near -0.6. The list shows a part of the results.
B1: GBRAP_52_6385 (protein)
chain: KVEEAAKLLWEAIKLIMEGGPEEEVKKLAKELLKYDEETLEEAAKLVAERLKELSPEEAEKALEATFKLADILEELGLPEEVASLIEAEIGKAAYEVLQK
B2: GBRAP_125_3127 (protein)
chain: EEERLLADLAELLRALGLDDEDVEEAVRLAREHGLRGTLYAVMLALGWDELADLVAQLTEEQTAAVLREVVARLRANPDLTPEEVRALLLEVARAAVAAS
B3: GBRAP_160_4458 (protein)
chain: SERKEKLIKEVDETRDLAKELIEGESHEQRVVIVEGEFGSFLLDLAEDENVSDELEDEVAEIIDELVEYMRANPDLSEEEIKELIDEAAEKIKEAIEKHL
B4: GBRAP_83_6876 (protein)
chain: KEEITVAGNSDNIEEAFEIAEDLHKEEGYEVTIELVITREDIPKLKEEFKELAEAGVETELEIYLEGATEEEAEELEKELKKIAKEAGVNIKITVHVIEL
B5: GBRAP_160_4173 (protein)
chain: MEKLKEAEKEIEEIFREAVEMMVGQSAEERAAIAAVAFGEVRLLLEEKGLLTDELDEHIDEVEEEVVGYILAHPDLTDEELRELMEEAREKIIEALKKSS
B6: GBRAP_160_4553 (protein)
chain: SEKREEAIKLAEEELKFVLEVVEEESNEEAKIVAIGEFGSLLMEVFLSGEFSDELEDKLGEIGDELEEELEKAVNGSKEEVKKVIERKYKEAIELLKKSE
B7: GBRAP_82_6866 (protein)
chain: MKTVIVLVVARDEEVAAAAKKAIEELKPRIEKLKEKGIEVEFIVTTFDEESLDAGVERAEALKAAHPGAEIEDVAVTRPEKALSELEAALDEIEEEAKEE
B8: GBRAP_160_4048 (protein)
chain: SEKVKKAKEFAKELFDEAIKLMEDLTPEQAANLMDVTVGQAILEAEELGIETTPELDAVLDEARALRDAVLADPSTTVEEVIEAARRLEEKFLKALEKQD
B9: GBRAP_128_3481 (protein)
chain: STEEVVARTRELMRRIRESSLEEVRELAEELVALLGSMDEESREAATEVIIEMLPELSVEKLEVLADVLRELRPKLDPFTATQAADIEIAALEEAEEKEE
B10: GBRAP_160_4470 (protein)
chain: SATVKALTEELRAEVEETLALLRDETPEQIATGVEVTIGSHLMEWSEEGKISDEQEDILIEAMDRVRALAAAERDATPEEMIARLREIVDEAVERILAAA
B11: GBRAP_11_2764 (protein)
chain: KKEKLKEIAELAKELAELLEQILEEGVDDEELLEKAREQLEKLTELVEKYGDEAQKKLAEILREHLEEAEEDPENRERHLREARATALVLSGQFLLEAEE
B12: GBRAP_160_4714 (protein)
chain: SETAEKLQKLIEEEFEKAIELIKGETTEQRAIIVEGTVGEILMEFVENEKVPDELEDEVLKIGDELVATIRANPNLTEEQIKELIKEAEEKMKEAVKKYL
B13: GBRAP_14_3869 (protein)
chain: KEKVLEIIEKAIEDMEKEMVELLPEKAEEIKKVAEEVKKKAKELIEEEDDVEKIMEKITEYALKKVEEAFADLPPEDRAALLATAYNEFAEADLEIEEEL
B14: GBRAP_184_5092 (protein)
chain: TTLEALVEAETREEALEKLEEVLAEAAAQKANLTVLVDLKGLDVETAIELLDLAGAALAAGKVPAVTVGFANAFTEEEIDKILARADEVGVRVVLPIKEE
B15: GBRAP_43_5794 (protein)
chain: DQEWVDGAFDFARTALETPEITDEAKARIVVDAVEIAIDEGTLTPEELKELLEALREAVSPETAARALKEILEEAKKLGAPEELLKVIEEALKEAEKELA
B16: GBRAP_184_5037 (protein)
chain: MIKEEVIEAENLEELKKKLKELEEEMKNFKGDLIVHVKSPKFTEEMVEEIMKTLKRMLEEGYVSSVTVGLDGEMSEEVVDKAVELADEAGIKVVLALSEE
B17: GBRAP_160_4754 (protein)
chain: KEELKKLAEEIKEIFDEYEEILKEVPASEAPTVIRGAMGEVLMEVESSEAASDELEEEIGKIADEAEKEAEANKDKPVEYFIEVLKKAREKILKLIEEKI
B18: GBRAP_184_5071 (protein)
chain: KVFEETIEVENVEEAEEKMDELAEKIKDFKGELVVHVKMPKADKETIEVILDKLKEIKDAGYVTKVTVSFDAEFTEEEVDFALKKADERGINVTVALSEE
B19: GBRAP_78_6672 (protein)
chain: KVEEELDKAIEHLGKAAKILISMNTEEAQDILGKVVDAASILVEAEEGEADLEDVEEALKLVEEAIKEVKKIDTPEAKEAAKHLEEAAKHLKEAIKELKK
B20: GBRAP_160_4780 (protein)
chain: SEKLERLKEAIREAAEEIREAIDTETPAQVVTVARGEGGDILQEAEELGEDNEELLAGLDAQIDALVAALEAAADATPEEKRAIVDAGEAAMIALLEKHT
B21: GBRAP_160_4536 (protein)
chain: AEKVAEALARIDEERDFIISLVDEISTEELINVVDTEFGSFIMWGVEMGIFSDELEDKLDAIRDATIATLKENKDATPEEKKAIITAAADAAKAAIKAAA
B22: GBRAP_9_7124 (protein)
chain: REELVEKLKEVALDMIEDISKVVPELTEEQKEKFKKEVEKLKEEALKDKSLTPEEIKKKFKELIEKIREEVKKIVNEELKKLVDAIALTAEEEVDEIVEE
B23: GBRAP_52_5934 (protein)
chain: MKEKIKELVDELVELVKEGKLEEARKLARRIVKELSEEELKLFIEELAEKARTAPKEEIDYILEAAEILAEELDEGGWDEVLADDLLARVAAAAYENLQK
B24: GBRAP_160_4042 (protein)
chain: KEKYEKLKKFAEEEFEEAKEFVEGVTVEEAANILDVTIGEIIMEAEELGIDDEELHDKIAEIGDKAVAELLANPDLTEEEIKAIIEKAREEVLKAIEEAK
B25: GBRAP_11_2886 (protein)
chain: KKEVLKKLAELAKKIAELIEKLLKEGTDDEELLKEIEKLLEELEELTKKHADEGEKKLVEIAKELYKKALEDPENREEYLKELLAAVRVLEGQFLLEAEE
B26: GBRAP_125_3018 (protein)
chain: SEEELAEALGLIARRFGYSEAEIAELQRLAREHGLKGTLIALALSLGWEELAELLEKLSEEQVAEVVREVAEALRANPELTPEELKELMLEVAKRALEEA
B27: GBRAP_128_3283 (protein)
chain: MNEELIKKAKELIKKIVEGPLEEVPKLTKELVELMKKMSEEELDIVVDFFEEEAKKMSEEKLEAVMDTLRELRPTMDPLVQNYVADMMTILGEQLLELEE
B28: GBRAP_11_2696 (protein)
chain: KKEELKKAAELARKLAELLERLLAAGPDDEELLKEIRELAEELLKLAEKYGDKGIQTLAKILKELLEEAEADPANREEYLRQALAAARVLEGQYLLEIEE
B29: GBRAP_184_5213 (protein)
chain: TVVREAVTATTAEEAIAKAEAVVAAAQAAGKKLVLTVFAENMSLEEIREVMEHLSALKDAGRIEDATLVVTDDKSEEEIDELIAAADEYGIRLVLALPDE

Molecular target: GABARAP, O95166
Assay: median log2 fold change of GCK-ALFA target abundance (FLAG IP / Myc IP barcode read proportion) (log2 ratio); each designed protein is fused to an ALFA-tag nanobody in HEK293 cells to bring the named protein to FLAG-tagged glucokinase (GCK); Myc marks an untargeted standard; higher = target protein stabilised (more abundant)
Conditions: target protein: 3xFLAG-MCP-GCK-ALFA reporter; HEK293 landing pad (RPLP)
Summary of the method: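 Binders fused to an ALFA nanobody were recombined as a library into HEK293 landing-pad cells, which were induced with 2 μg mL^−1 doxycycline and then transfected to express a FLAG-tagged target and a Myc-tagged standard. After 48 h, circular RNA barcodes recovered by anti-FLAG and anti-Myc immunoprecipitation of lysates were reverse transcribed, amplified and sequenced. Each binder's target abundance is the median log2 ratio of FLAG to Myc barcode read proportions, from barcodes present at ≥10^−7 in both replicates, binders carrying ≥3 barcodes per replicate, a 10^−6 pseudocount and pooled replicates.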

Chain of GABARAP, O95166 (O95166 whole entry, the tested form may be a part): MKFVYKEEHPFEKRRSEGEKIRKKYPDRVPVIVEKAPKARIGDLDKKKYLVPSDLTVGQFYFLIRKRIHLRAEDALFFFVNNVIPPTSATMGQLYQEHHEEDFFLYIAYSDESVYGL

Binder | median log2 fold change
B1 | -0.186
B2 | -0.495
B3 | -0.285
B4 | 0.191
B5 | -0.138
B6 | -0.205
B7 | 0.129
B8 | 0.0607
B9 | 0.0415
B10 | -0.0467
B11 | 0.137
B12 | -0.444
B13 | 0.0483
B14 | 0.0216
B15 | 0.122
B16 | 0.159
B17 | 0.163
B18 | 0.274
B19 | 0.135
B20 | 0.196
B21 | 0.146
B22 | 0.136
B23 | -0.0862
B24 | -0.0593
B25 | 0.0317
B26 | 0.388
B27 | -0.282
B28 | 0.0786
B29 | -0.103
